In PubChem BioAssay AID485364 (National Center for Advancing Translational Sciences (NCATS), 2010):
Screen size: about 360,000 compounds; about 11,000 (3.1%) were called active. Inconclusive means that the source gave no clear call. Such entries were picked first, then a sample of the others. Calls come from the whole dose curve; as a rule, active = well fitted inhibition curve with a large enough effect; inconclusive = small, poorly fitted or top-dose-only effect; inactive = no such curve, though single readings can be large or run the other way. No potency is given beside an inconclusive call; the fits are too rough.
% is set by controls: 0 for no effect and ±100 for the full control effect; potency is the fitted concentration of half-maximal effect; tags give direction and shape of the fitted curve.
Note: nearly all actives have a fitted effect of over 60% in size.

These molecules were tested against Schistosoma mansoni thioredoxin glutathione reductase (TGR) (UniProt Q962Y6) (assay: qHTS Assay for the Inhibitors of Schistosoma Mansoni Peroxiredoxins). Conditions: purified TGR, DTNB reduction, TNB absorbance 405 nm; activity change, negative = inhibition: at 114 µM (top of the series) unless noted.
Procedure, shortened: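 First, TGR (20 nM dispensed) and NADPH were mixed with compound. Second, a 15 min room-temperature incubation followed. Third, further NADPH and then DTNB were added to start the reaction. Finally, TNB absorbance was monitored kinetically.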
In the case of CC1CCCCC1NC(=O)COC(=O)c1ccc([N+](=O)[O-])o1 (configuration not stated), the Potency is reported as inconclusive [inhibitor, partial curve].
In the case of Cc1cc(C(F)(F)F)nc(SCC(=O)NC2CCCCC2)n1, the “activity change, negative = inhibition” value is reported as inactive: -3.74%.
For CC(C)CC1Nc2ncnc(N3CCN(c4ccccc4)CC3)c2N(Cc2ccc(Cl)cc2)C1=O (configuration not stated), the Potency was inconclusive [inhibitor, partial curve].
O=C(O)c1ccc(/C=N/Nc2cccc(C(F)(F)F)c2)cc1 was tested, and the “activity change, negative = inhibition” value was inactive: -4.99%.
For Cc1ccc(CN2CCN(C3CCNCC3)C(=O)C2=O)cc1, the Potency was inconclusive [inhibitor, partial curve].
With Cc1c(Cl)cnc(NC(=O)COC(=O)c2ccncc2)c1Cl the Potency was inconclusive [inhibitor, partial curve].
With Cc1ccc(C)c(N2CCN(C(c3ccc(N(C)C)cc3)c3nnnn3C(C)(C)C)CC2)c1 (configuration not stated) the Potency was inconclusive [inhibitor, full curve, poor fit].
In the case of Cc1ccc(/C=C(\NC(=O)c2ccccc2)C(=O)NC2CCN(Cc3ccccc3)CC2)o1, the Potency is reported as inconclusive [inhibitor, single point].
With CCOC(=O)c1[nH]c2ccc(OC)cc2c1NC(=O)CN1CCc2ccccc2C1 the “activity change, negative = inhibition” value was inactive: -5.5%.
In the case of COc1ccc(C(=O)/C=C/Nc2c(C)n(C)n(-c3ccccc3)c2=O)cc1OC, the Potency is reported as inconclusive [inhibitor, partial curve].
With CCOC(=O)Cn1c(=O)n(C2CCCCC2)c2nc(-c3ccc(C(C)C)cc3)nc(C(N)=O)c21 the “activity change, negative = inhibition” value was inactive: -1.97%.
Cc1nnc(SCC(=O)NCc2ccccc2Cl)c2nn(-c3ccccc3)c(C)c12 was tested, and the “activity change, negative = inhibition” value was inactive: -12.2%.
With O=C(c1cc(-c2ccco2)nc2ccccc12)N1CCN(c2ccc(F)cc2)CC1 the Potency was inconclusive [inhibitor, partial curve].
In the case of O=C1C=C(N2CCOCC2)C2(CCCCC2)O1, the “activity change, negative = inhibition” value is reported as inactive: 1.28%.
For COc1cc([N+](=O)[O-])c2ncsc2c1, the “activity change, negative = inhibition” value was inactive: 1.38%.
COCCn1cc(C(=O)NCc2cccs2)c2c3ccccc3n(C)c2c1=O was tested, and the Potency was inconclusive [inhibitor, single point].
For Cc1cc(-c2ccco2)n(CC(=O)NCCCc2ccccc2)n1, the Potency was inconclusive [inhibitor, partial curve].
For O=C(O)c1ccc(Nc2cc(Cl)c3nonc3c2[N+](=O)[O-])cc1, the Potency was active: 0.316 µM.
For O=C(O)CCCCCN1C(=O)/C(=C\c2ccc(-c3ccc(Cl)cc3)o2)SC1=S, the Potency was inconclusive [inhibitor, partial curve].
Cc1cc(NC(=O)CCC(=O)N(c2cccnc2)C(C(=O)NC2CCCC2)c2ccccc2)no1 (configuration not stated) was tested, and the “activity change, negative = inhibition” value was inactive: 1.86%.
COc1ccccc1NC(=S)Nc1cccc2cnccc12 was tested, and the Potency was inconclusive [inhibitor, partial curve].
With COc1ccccc1C1C([N+](=O)[O-])=CC([N+](=O)[O-])=CN1C (configuration not stated) the Potency was inconclusive [inhibitor, partial curve].
In the case of Cc1ccc(S(=O)(=O)N2CCN(C(=O)c3ccco3)CC2)cc1, the “activity change, negative = inhibition” value is reported as inactive: -4.98%.
CCOC(=O)c1ccc2c(c1)C1C=CCC1C(C(=O)O)N2 (configuration not stated) was tested, and the Potency was active: 7.94 µM.
For CCC(=O)Nc1nnc(S(=O)(=O)N(CC)c2ccc(Cl)cc2)s1, the Potency was inconclusive [inhibitor, partial curve].
For Cc1ccc(S(=O)(=O)C(CNC(=O)C(=O)NCc2ccccc2C)c2cccs2)cc1 (configuration not stated), the Potency was inconclusive [inhibitor, partial curve].
With Cc1cc2cc(C(c3nnnn3CC3CCCO3)N3CCCc4ccccc43)c(=O)[nH]c2cc1C (configuration not stated) the Potency was inconclusive [inhibitor, partial curve].
For COc1ccc(C(=O)NCc2ccc3[nH]c(C)cc3c2)cc1OC, the Potency was active: 14.1 µM.
For Cc1cccc(-n2nc3c(c2NC(=O)CCCl)CSC3)c1, the Potency was inconclusive [inhibitor, partial curve].
For COc1ccc2c(c1)C(=O)CC(c1ccc(OC)c(OC)c1)O2 (configuration not stated), the “activity change, negative = inhibition” value was inactive: 11.9%.
For COc1ccc(/C=N/N=C2/CC(C)(C)Cc3n[nH]c(=O)cc32)cc1, the Potency was active: 12.6 µM.
With COc1ccc2cc(C(c3nnnn3Cc3ccccc3)N3CCCCCC3)c(=O)[nH]c2c1 (configuration not stated) the Potency was active: 20 µM.
Cc1ccc(CN2CCN(C3CCN(C(=O)Nc4ccc(C)cc4Cl)CC3)C(=O)C2=O)cc1 was tested, and the “activity change, negative = inhibition” value was inactive: 38.3%.
CC(=O)N1CCC2(CC1)C(C#N)=C(N)Oc1n[nH]c(C(F)(F)F)c12 was tested, and the Potency was active: 28.2 µM.
For C=CCC1Cc2c(cccc2[N+](=O)[O-])C(CC=C)N1 (configuration not stated), the Potency was inconclusive [inhibitor, partial curve].
O=C1c2c(O)cc(O)cc2O[C@H](c2ccc(O)c(O)c2)[C@H]1O was tested, and the Potency was inconclusive [inhibitor, partial curve].
In the case of CCN=c1sc(C(=O)NCCc2ccccc2)cc(=O)n1CC, the Potency is reported as active: 20 µM.
In the case of Cc1cccc(C(=O)N2c3nc(-c4ccco4)nn3C3(CCCCC3)[C@@H]3CCCC[C@@H]32)c1, the Potency is reported as active: 35.5 µM.
With Cn1nc(C(=O)Nc2nc3ccccc3[nH]2)ccc1=O the Potency was inconclusive [inhibitor, single point].
CCn1ccnc1CN(C)Cc1cn(-c2ccc(C)cc2)nc1-c1cccc(C)c1 was tested, and the “activity change, negative = inhibition” value was inactive: 4.55%.
With CCc1c(C)nc(N)nc1N1N=C1SC the “activity change, negative = inhibition” value was inactive: 12.5%.
For COc1cc(CNCc2ccccn2)ccc1OCC(=O)NC1CCCCC1, the “activity change, negative = inhibition” value was inactive: 9.24%.
For O=C(Nc1cccc(CNCCc2c[nH]c3ccccc23)c1)c1ccccc1Cl, the Potency was inconclusive [inhibitor, full curve].
CCOC(=O)c1[nH]c(=O)[nH]c1CSCCO was tested, and the “activity change, negative = inhibition” value was inactive: -19.6%.
In the case of Cc1ccc(C2C=C(c3ccccc3OC(F)F)Nc3ncnn32)cc1 (configuration not stated), the Potency is reported as inconclusive [inhibitor, partial curve].
CCCCOC(=O)/C=C\C(=O)NC(N)=O was tested, and the Potency was inconclusive [inhibitor, full curve, poor fit].
In the case of CCN(CC)CC(=O)N1c2ccccc2Oc2c(c(=O)n(C)c(=O)n2C)C1c1cccc([N+](=O)[O-])c1 (configuration not stated), the Potency is reported as inconclusive [inhibitor, full curve].
